In all, about 360,000 compounds went through this assay and about 7,500 (2.1%) were called active. Inconclusive means that the source gave no clear call. Such entries were picked first, then a sample of the others. The call rests on the fitted dose curve; in most records, active means well fitted cell-killing curve with a large enough effect; inconclusive means small, poorly fitted or top-dose-only effect, or effect the other way, or another doubt; inactive means no such curve, though single readings can be large or run the other way. Potencies of inconclusive entries are left out as doubtful fits.
Assay: qHTS for induction of synthetic lethality in tumor cells producing 2HG: qHTS for the HT-1080-IDH1KD cell line;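 on activity, negative = toxicity: 0% = DMSO wells and -100% = cell-free medium wells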
Conditions: HT-1080 IDH1 knockdown viability, ATP luminescence, 48 h; activity, negative = toxicity: at 46.1 µM (top of the series) unless noted
In short: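 Cytotoxicity counter-line: IDH1KD HT-1080, 48 h, CellTiter-Glo. Curves classed by r2, magnitude and activity.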
Potency means the concentration at half of the fitted maximal effect; tags describe the fitted curve by direction and shape.

| SMILES | Potency | activity, negative = toxicity |
| --- | --- | --- |
| CC(C)CCNC(=O)C1(C)CCN1Cc1ccc2ccccc2c1 (stereo not drawn) | inconclusive [cytotoxic, single point] |  |
| CC(C)c1nc2sc3c(NCc4ccco4)ncnc3c2c2c1COC(C)(C)C2 | inconclusive [cytotoxic, single point] |  |
| Cc1ccc(S(=O)(=O)N2CCN(S(=O)(=O)c3cccs3)CC2)cc1 |  | inactive: 6.27% |
| CC(C)(C)c1ccc(O)c(O)c1 | inconclusive [cytotoxic, single point] |  |
| C/C(=N\NC(=O)c1ccc(F)cc1)c1ccccn1 | inconclusive [cytotoxic, full curve] |  |
| CC(C)(C)/C(O)=C/c1nc2cc(Cl)ccc2oc1=O | inconclusive [cytotoxic, single point] |  |
| CCn1nnnc1SCC(=O)NC1CCCC1 |  | inactive: 14.1% |
| O=C1SC(SCc2ccccc2)=N/C1=C\c1ccco1 | inconclusive [cytotoxic, single point] |  |
| C#CCSc1nsc(SCC#C)c1C#N | inconclusive [cytotoxic, single point] |  |
| C[C@@H]1CN([C@@H](C)CO)C(=O)c2cc(NC(=O)C3CC3)ccc2O[C@@H]1CN(C)Cc1ccc(Cl)c(Cl)c1 | inconclusive [cytotoxic, single point] |  |
| O=C(NNC(=O)c1ccccc1OCc1ccccc1)c1ccccc1O | inconclusive [cytotoxic, partial curve] |  |
| CN1C(=O)C(CC(=O)NCCc2ccccc2)N(NC(=O)c2ccc(Cl)cc2)C1=S (stereo not drawn) |  | inactive: -3.71% |
| O=C(OCc1ccc(-c2ccccc2)cc1)c1cccc(O)c1 | inconclusive [cytotoxic, single point] |  |
| O=C(CN1C(=O)NC(Cc2c[nH]c3ccccc23)C1=O)Nc1cccc(S(=O)(=O)N2CCCCCC2)c1 (stereo not drawn) | inconclusive [cytotoxic, partial curve, poor fit] |  |
| COc1ccc(-c2coc3c(C(=O)NC(C)C)cccc23)c(C)c1 | inconclusive [cytotoxic, single point] |  |
| O=S(=O)(Nc1nc2ccccc2nc1Nc1cccc(S(=O)(=O)N2CCCCC2)c1)c1ccccc1 | inconclusive [cytotoxic, partial curve] |  |
| COc1ccc2c(c1)OC[C@H]1[C@H]2N2C(=O)c3cc(OC)c(OC)cc3NC(=O)[C@@]2(C)[C@H]1c1ccccc1 | inconclusive [cytotoxic, partial curve] |  |
| CC(=O)c1cccc(NC(=O)C(C)OC(=O)CCn2c(C)csc2=O)c1 (stereo not drawn) |  | inactive: -1.37% |
